B1: CPEB3 Ribozyme (parent)
chain: UAACAGGGGGCCACAGCAGAAGCGUUCACGUCGCAGCCCCUGUCAGAUUCUGGUGAAUCUGCGAAUUCUGCUGUAUAUCUC

Read counts are not given, so values of variants with three or more changes are uncertain.

The data set covers variants of B1. Briefly: self-cleavage, relative activity (ratio to wild type); higher = more cleavage; in vitro, sequencing. Put shortly: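 CPEB3 self-cleaving ribozyme mutant libraries were made by rounds of error-prone PCR, barcoded, and transcribed in vitro with T7 RNA polymerase for 5 hours at 37°C. Cleavage occurred during transcription and a 15 min DNase I step before EDTA stop. RNAs were reverse transcribed with template switching and Illumina-sequenced, with DNA sequencing mapping barcodes to variants. Relative activity is the variant's cleaved/total read fraction divided by wild type's (minimum 5 reads), averaged across three batches.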
Take UAACAGGGGGCCGCAGCAGAAGCGUUCACGUCGCAGCCCCUGUCAGAUUCUGGUGAAUCUGCGAAUUCCGCUCUAUAUCUC: the self-cleavage is 0.32.

Consider UAACAGGGGGCCGCAGCAGAAGCGUUCACGUCGCAGCCCCUGUCAGAUUCCGGUGAAUCUGCGAGUUCUGCAGUAUAUCUC, for which the self-cleavage is 0.36.

Regarding UAACAGGGGGCCGCAGCAGAAGCGUUCACGUCGCAGCCCCUGUCAGAUUCUGGUGAAUCUGCGAAUUCAGCUAUAUAUCUC, the self-cleavage was 0.55.

Regarding UAACAGGGGGCCGCAGCAGAAGCGUUCACGUCGCAGCCCCUGUCAGAUUCUGGUGAAUCUGCGAAUUCAGCCGUAUAUCUC, the self-cleavage came to 0.23.

Turning to UAACAGGGGGCCUCGGCAGUAGCGUUCACGGCGCAGCCCCUGUCAGAUUCUGGCGAACCUGCGAAUACUGCUGUAUAUCUC, the self-cleavage worked out at 0.14.

Take UAACAGGGGGCCGCAGCAGAAGCGUUCACGUCGCAGCCCCUGUCAGACUCUGGUGAAUCUGCGAGUUCUGCUGUAUAUCAC: the self-cleavage was 0.14.

UAACAGGGGGCCGCAGCAGAAGCGUUCACGUCGCAGCCCCUGUCAGAUUCUGGUGAAUCCGCGAAUUCCGCUGUAUAUCUC: the self-cleavage is 0.24.

UAACAGGGGGCCGCAGCAGAAGCGUUCACGUCGCAGCCCCUGUCAGAUUCUGGUGAACCCGCGAAUUCUGCUGUAUCUCUC: the self-cleavage was found to be 0.12.

Take UAACAGGGGGCCUCGGCAGAAGCGUUCACGUCGCAGCCCGUGUCGGAUUCUGGUGAAUCUGCGAAUCCUGCUGUAUAUCUC: the self-cleavage turned out to be 0.04.

Take UAACAGGGGGCCGCAGCAGAAGCGUUCACGUCGCAGCCCCUGUCAGAUUCCGGUGAAUCUACGAAUUCUGCUGUAUAUCUC: the self-cleavage turned out to be 0.17.

For UAACAGGGGGCCGCAGCAGAAGCGUUCACGUCGCAGCCCCUGUCAGAUUCUGGUGAAUCUGCGAACUCUGCUGUAUACCUC, the self-cleavage was 0.26.

Take UAACAGGGGGCCGCAGCAGAAGCGUUCACGUCGCAGCCCCUGUCAGAUUCUGGAGAAUCCGCGAAUUCAGCGGUAUAUCUC: the self-cleavage is 0.13.

UAACAGGGGGCCGCAGCAGAAGCGUUCACGUCGCAGCCCCUGUCAGAUUCAGGUGUAUCUGCGAAUUCUGCUGUAUAUCUC: the self-cleavage is 0.47.

Turning to UAACAGGGGGCCUCGGCAGAGGCGUUCACGUCGCAGCCCCUGUCAGAUUCUGGUGAAUCUGCGAAUUCUGCUGUAUAUCUC, the self-cleavage stood at 0.48.

Regarding UAACAGGGGGCCGCAGCAGAAGCGUUCACGUCGCAGCCCCUGUCAGACUCUGGUGAACCUGCGAAUUCUGCUGUAUAUCAC, the self-cleavage worked out at 0.16.

Take UAACAGGGGGCCGCAGCAGAAGCGUUCACGUCGCAGCCCCUGUCAGACUCUGGUGAAUCUGCGAAUUCUGCUGUAUGUCUC: the self-cleavage is 0.3.

Turning to UAACAGGGGGCCGCAGCAGAAGCGUUCACGUCGCAGCCCCUGUCAGAUUCUGGCGAAUCUGCGAAUUCUGCUGUACAUCUC, the self-cleavage was 1.07.

As for UAACAGGGGGCCGCAGCAGAAGCGUUCACGUCGCAGCCCCUGUCAGAUUCAGGUGAAUCUGCGAAUUCCGCUGUAUAUCUC, the self-cleavage was determined as 0.29.

On to UAACAGGGGGCCGCAGCAGAAGCGUUCACGUCGCAGCCCCUGUCAGAUUCCGGUGAGUCAGCGGAUUCUGCCGUAUAUCUC, for which the self-cleavage amounted to 0.

Turning to UAACAGGGGGCCUCGGCGGAAGCGUUCACGACGCAGCCCCUGUCAGAUUCUGGUGAACCUGAGAAUUCUGCUGUAUAUCUU, the self-cleavage is 0.13.

As for UAACAGGGGGCCGCAGCAGAAGCGUUCACGUCGCAGCCCCUGUCAGAUUCUGGCGAAUCUGCGAAUUCUGUUGUAUAUCUC, the self-cleavage stood at 0.32.

With UAACAGGGGGCCUCGGCAGAAGCGUUCACGUCGCAGCCCCAGUCAGAUUCUGGUGAAUCUGCGAAUUCUGCUGUAUAUCUC, the self-cleavage amounted to 0.26.

For UAACAGGGGGCCGCAGCAGAAGCGUUCACGUCGCAGCCCCUGUCAGAUCCUGGUGAUUCUGCGAAUUCUGCUGUAUACCUC, the self-cleavage turned out to be 0.82.

As for UAACAGGGGGCCGCAGCAGAAGCGUUCACGUCGCAGCCCCUGUCAGAUUCUGGGGAAUCUGCGAAUUCUGCUGUGUAUCUC, the self-cleavage worked out at 0.52.

In the case of UAACAGGGGGCCUCGGCUGAAGCGUUCACGUCGCAGCCCCUGUCAGAUUCUGGUGAAUCUGCGAAUUCUGCUGUAUAUCUC, the self-cleavage amounted to 0.23.

UAACAGGGGGCCGCAGCAGAAGCGUUCACGUCGCAGCCCCUGUCAGAUUCUGGUGAAUCAGCGUAUUGUGCUGUGUACCUC: the self-cleavage was determined as 0.17.

For UAACAGGGGGCCUCGGCAGAAGCAUUCACCUCGCAGCCCCAGUCGGAUUCUGGUGAAUCUGCGAAUUCUGCUGUAUAUCUC, the self-cleavage turned out to be 0.09.

Take UAACAGGGGGCCUCGGCAGAGGCGUUCACGUCGCAGCCCCUGUCAGAUUCUGGUGAAUCUGCGAAUUCUGCUGUAUAUCCC: the self-cleavage turned out to be 0.53.

As for UAACAGGGGGCCGCAGCAGAAGCGUUCACGUCGCAGCCCCUGUCAGAUUCUGGUGAAUCUGCGAAUUCUGCAGUAUACCUC, the self-cleavage turned out to be 0.59.

Take UAACAGGGGGCCGCAGCAGAAGCGUUCACGUCGCAGCCCCUGUCAGACUCUGGUGAAUCUGCGAAUUCUGCGGUAUAUCUC: the self-cleavage turned out to be 0.57.

As to UAACAGGGGGCCGCAGCAGAAGCGUUCACGUCGCAGCCCCUGUCAGAUUCUGGCGAAUCUGCGGAUUCUGCUGUAUAUCUC, the self-cleavage was found to be 0.66.

Take UAACAGGGGGCCUCCGCAGAAGCGUUCACGUCGCAGCCUCUGUCCGAUUCUGGUGAAUCUGCGAAUUCCGCUGUAUAUCUC: the self-cleavage worked out at 0.08.

On to UAACAGGGGGCCGCAGCAGAAGCGUUCACGUCGCAGCCCCUGUCAGAUUCUGGUGAACCCGCGAAUUCUGCAGUAUAUCUC, for which the self-cleavage is 0.1.

UAACAGGGGGCCGCAGCAGAAGCGUUCACGUCGCAGCCCCUGUCAGAUUCAGGUGAAUCUGCGAAUUCUGCCGUAUAUCUC: the self-cleavage was found to be 0.38.

The values above are taken from the RNAGym collection of RNA variant scans (doi:10.1093/nar/gkz1192).
